Measured values reported in the supplement of paper PMC9446081.
Hit rate of the full screen: of about 39,000 compounds, about 220 (0.56%) showed activity. The list shows a part of the results.

Tested on: Escherichia coli K-12 BW25113
Experiment: relative growth (OD600 normalised to plate interquartile mean) (fraction); higher = less growth inhibition, active = 0.2 or less
Settings: 50 µM; LB; incubation time: overnight (16-24 h)
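Further: static incubation at 37 °C against the wild-type strain, values averaged over two biological replicates.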

Structure (SMILES)	relative growth
Cc1noc(C)c1NC(=O)Nc1ccc2c(c1)C(=O)N([C@@H](C)CO)C[C@@H](C)[C@@H](CN(C)CC1CCCCC1)OCCCC[C@H](C)O2	inactive: 0.999
C[C@@H]1CN([C@@H](C)CO)C(=O)c2cccc(NC(=O)Nc3ccc(C(F)(F)F)cc3)c2O[C@H]1CN(C)Cc1ccc(-c2ccccc2)cc1	inactive: 1.01
C[C@@H]1CN([C@H](C)CO)C(=O)c2cc(NC(=O)Nc3ccc(F)cc3)ccc2O[C@@H](C)CCCCO[C@@H]1CN(C)Cc1ccccc1	inactive: 0.994
C[C@H](CO)N1C[C@H](C)[C@@H](CN(C)Cc2ccc(Cl)c(Cl)c2)OCCCC[C@H](C)Oc2ccc(NS(=O)(=O)c3ccc(Cl)cc3)cc2C1=O	inactive: 0.981
COc1ccc(NC(=O)N(C)C[C@@H]2Oc3ccc(NS(C)(=O)=O)cc3C(=O)N([C@@H](C)CO)C[C@@H]2C)cc1	inactive: 0.989
COCCc1nc2c(c(=O)n(C)c(=O)n2C)n1C	inactive: 1.01
O=C(CCCCCCC(=O)N/N=C/[C@@H](O)[C@H](O)[C@H](O)CO)NO	inactive: 1.01
Cc1cc(C)c(S(=O)(=O)N2CCO[C@@H]2CNC(=O)C(=O)NCCCN2CCCC2=O)c(C)c1	inactive: 1.01
C[C@@H]1CN([C@H](C)CO)C(=O)c2cc(NC(=O)Cc3ccccc3)ccc2O[C@@H](C)CCCCO[C@@H]1CN(C)S(=O)(=O)c1cccs1	inactive: 1.03
C[C@H]1CN([C@@H](C)CO)S(=O)(=O)c2ccc(C#CCN(C)C)cc2O[C@H]1CN(C)Cc1ccc(F)cc1	inactive: 1.02
O=C(CN1CCOCC1)N[C@H]1CC[C@@H](CCNC(=O)C2CCCCC2)O[C@@H]1CO	inactive: 0.999
Cc1ccc(S(=O)(=O)N2C[C@@H](O)COC[C@H]3O[C@H](CC(=O)NCCN4CCCCC4)CC[C@@H]32)cc1	inactive: 0.964
Cn1c(=O)c2[nH]cnc2n(C)c1=O.NCCN	inactive: 1.01
C[C@H](CO)N1C[C@H](C)[C@H](CN(C)C(=O)c2ccccc2)OCCCC[C@H](C)Oc2ccc(NC(=O)Nc3cccc4ccccc34)cc2C1=O	inactive: 1.04
Nc1ccn([C@@H]2O[C@H](CO)[C@@H](O)[C@H]2O)c(=O)n1	inactive: 0.996
COc1ccc(S(=O)(=O)Nc2ccc3c(c2)C(=O)N([C@H](C)CO)C[C@@H](C)[C@H](CN(C)Cc2ccc(Oc4ccccc4)cc2)O3)cc1	inactive: 1.05
O=C(CN1CCNCC1)N1CCCC1	inactive: 1
C[C@@H]1CN([C@H](C)CO)C(=O)c2cc(NC(=O)C3CCCCC3)ccc2O[C@H]1CN(C)Cc1ccc(Oc2ccccc2)cc1	inactive: 0.979
Cc1cccc(-n2cc(CN)cn2)c1	inactive: 0.955
Nc1ncnc2c1nc(Br)n2[C@H]1O[C@H]2COP(=O)(O)O[C@@H]2[C@@H]1O	inactive: 0.988

Structure (SMILES)	relative growth
CC(C)(C)[S@@](=O)N1Cc2cc(C(=O)N3CCCCC3)nc(-c3cccc(-c4ccc(C#N)cc4)c3)c2[C@H]1CCO	inactive: 1.02
C[C@@H]1CCCCO[C@@H](CN(C)Cc2ccc(C(=O)O)cc2)[C@H](C)CN([C@H](C)CO)C(=O)c2cc(NC(=O)CCC(F)(F)F)ccc2O1	inactive: 0.982
O=C(COP(=O)(O)O)[C@@H](O)[C@H](O)[C@H](O)COP(=O)(O)O	inactive: 0.987
CSc1nc(-c2ccccc2)cc(-c2cccs2)c1C#N	inactive: 1.03
CC(C)C[C@@H](N)C(=O)N[C@H]1C(=O)N[C@@H](CC(N)=O)C(=O)N[C@H]2C(=O)N[C@H]3C(=O)N[C@H](C(=O)N[C@H](C(=O)O)c4cc(O)cc(O)c4-c4cc3ccc4O)[C@H](O)c3ccc(c(Cl)c3)Oc3cc2cc(c3O[C@@H]2O[C@H](CO)[C@@H](O)[C@H](O)[C@H]2O[C@H]2C[C@](C)(N)[C@H](O)[C@H](C)O2)Oc2ccc(cc2Cl)[C@H]1O	inactive: 0.954
Cc1noc(C)c1S(=O)(=O)Nc1ccc2c(c1)C(=O)N([C@H](C)CO)C[C@@H](C)[C@H](CN(C)Cc1ccccc1)OCCCC[C@@H](C)O2	inactive: 1.02
COCC(=O)N1CC(=O)N2[C@@H](CO)[C@@H](c3ccc(C#Cc4cccnc4)cc3)[C@@H]2C1	inactive: 0.962
C[C@H]1CN([C@@H](C)CO)C(=O)c2cc(C3=CCCCC3)cnc2O[C@H]1CN(C)C(=O)CN1CCOCC1	inactive: 0.969
C[C@@H]1CCCCO[C@@H](CN(C)C(=O)C2CCCCC2)[C@@H](C)CN([C@H](C)CO)C(=O)c2cc(NC(=O)c3ccncc3)ccc2O1	inactive: 1
COCC(=O)N1[C@@H]2c3ccc(C4=CCCC4)c(=O)n3C[C@@H]2[C@@H](CO)[C@@H]1C(=O)N1CCN(C)CC1	inactive: 1
CC12CCC(=O)C=C1CCC1C2CCC2(C)C1CCC2(O)C(=O)CO (centres undefined)	inactive: 1.14
C[C@H](CO)N1C[C@H](C)[C@H](CN(C)Cc2ccc(-c3ccccc3)cc2)Oc2c(NS(=O)(=O)c3ccccc3)cccc2C1=O	inactive: 0.977
C[C@H]1CN([C@@H](C)CO)C(=O)Cc2cc(NC(=O)CCC(F)(F)F)ccc2O[C@H]1CN(C)Cc1ccc(C(F)(F)F)cc1	inactive: 1.03
CCN1CC[C@]2(CN(S(C)(=O)=O)CC23CCN(Cc2cnn(C)c2)CC3)C1=O	inactive: 1.01
CO[C@H]1CN(C)C(=O)c2ccc(NC(=O)C3CC3)cc2OC[C@H](C)N(C(=O)CN2CCOCC2)C[C@@H]1C	inactive: 1.01
C[C@@H]1CN([C@H](C)CO)C(=O)c2cc(NS(C)(=O)=O)ccc2O[C@@H](C)CCCCO[C@@H]1CN(C)Cc1ccncc1	inactive: 0.991
C[C@H](CO)N1C[C@H](C)[C@@H](CN(C)C(=O)Nc2ccc(C(F)(F)F)cc2)Oc2ccc(NC(=O)NC3CCCCC3)cc2CC1=O	inactive: 1.01
COc1ccc(S(=O)(=O)N(C)C[C@@H]2OCCCC[C@@H](C)Oc3ccc(NC(=O)Nc4c(C)noc4C)cc3C(=O)N([C@H](C)CO)C[C@H]2C)cc1	inactive: 1.01
CN1CC(=O)N(c2cnn(C)c2)C[C@]12CCN(C(=O)c1cnccn1)C2	inactive: 1
